Experimental data taken from PMC4336329 (PLoS ONE, 2015).
Out of some 310,000 compounds screened, about 14,000 (4.5%) showed an effect of 50% or more. The effect is printed as a negative number. The list shows a part of the results.

molecular target: human ether-à-go-go-related gene (hERG) potassium channel (human, UniProt Q12809); test: primary screen, population patch clamp on CHO cells stably expressing hERG
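Note: peak tail current of the secondary pulse compared with the same well before compound.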

Chain of human ether-à-go-go-related gene (hERG) potassium channel (Q12809 whole entry, looked up): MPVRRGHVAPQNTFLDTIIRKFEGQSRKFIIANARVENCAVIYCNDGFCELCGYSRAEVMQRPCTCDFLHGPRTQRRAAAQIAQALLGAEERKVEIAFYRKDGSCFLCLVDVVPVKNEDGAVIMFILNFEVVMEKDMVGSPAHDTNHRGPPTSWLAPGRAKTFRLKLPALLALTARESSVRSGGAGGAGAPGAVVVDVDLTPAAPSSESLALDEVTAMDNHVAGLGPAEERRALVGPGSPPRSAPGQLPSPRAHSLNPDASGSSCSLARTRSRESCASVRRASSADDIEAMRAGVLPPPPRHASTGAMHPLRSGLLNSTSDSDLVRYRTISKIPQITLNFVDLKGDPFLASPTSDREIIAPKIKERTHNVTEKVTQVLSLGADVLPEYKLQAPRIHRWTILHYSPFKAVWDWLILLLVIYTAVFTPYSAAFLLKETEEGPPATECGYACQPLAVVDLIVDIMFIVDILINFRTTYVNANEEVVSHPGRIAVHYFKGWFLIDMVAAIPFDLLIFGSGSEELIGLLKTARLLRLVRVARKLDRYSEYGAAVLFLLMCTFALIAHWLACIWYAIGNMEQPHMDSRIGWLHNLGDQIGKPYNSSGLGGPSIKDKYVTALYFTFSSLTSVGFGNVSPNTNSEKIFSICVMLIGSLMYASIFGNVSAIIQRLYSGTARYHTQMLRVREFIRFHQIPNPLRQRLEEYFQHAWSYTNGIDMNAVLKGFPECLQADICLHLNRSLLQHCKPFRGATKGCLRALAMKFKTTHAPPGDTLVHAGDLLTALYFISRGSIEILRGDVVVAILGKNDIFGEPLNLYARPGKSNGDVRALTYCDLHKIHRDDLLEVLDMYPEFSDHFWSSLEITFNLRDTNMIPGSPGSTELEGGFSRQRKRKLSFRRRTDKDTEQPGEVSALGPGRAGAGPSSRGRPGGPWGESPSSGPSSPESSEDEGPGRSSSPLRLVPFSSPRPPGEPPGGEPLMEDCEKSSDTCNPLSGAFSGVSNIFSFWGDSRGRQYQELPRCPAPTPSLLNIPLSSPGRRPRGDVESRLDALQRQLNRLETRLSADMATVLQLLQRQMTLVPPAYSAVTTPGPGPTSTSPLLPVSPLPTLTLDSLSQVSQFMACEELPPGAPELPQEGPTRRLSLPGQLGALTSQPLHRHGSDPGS

Compound	hERG current change (%, negative = inhibition) at 10uM
CC(C)CN(C(=O)COC(=O)c1cccn1C)c1c(N)n(Cc2ccccc2)c(=O)[nH]c1=O	16.4%
COc1ccccc1/C=N/Nc1nc(C)c(C(C)=O)s1	5%
COCCN(C(=O)COC(=O)c1ccc(C=O)cc1)c1c(N)n(Cc2ccccc2)c(=O)[nH]c1=O	4.38%
CCN(CC)C(=S)SCC(=O)Nc1ccc(F)cc1	-5.4%
O=C(CNC(=O)c1ccc(Cl)c([N+](=O)[O-])c1)OC1CCCCC1=O (stereo not drawn)	3.96%
O=C(CSc1nnc(COc2ccc(F)cc2)o1)N1c2ccccc2CCc2ccccc21	6.64%
COc1ccccc1NC(=O)Cn1nnc(C(=O)Nc2ccccc2)c1N	-2.88%
COc1cc(OC)cc(N2C(=O)CC(N3CCC(C(=O)N4CCCCC4)CC3)C2=O)c1 (stereo not drawn)	24.4%
CCOc1ccc(NC(=O)CCC(=O)NNC(=O)COc2ccc(C)cc2Br)cc1	16.5%
O=S(=O)(Nc1cccc(S(=O)(=O)N2CCCC2)c1)c1ccc(Cl)s1	-14.2%
Cc1ccccc1NC(=O)c1ccc([N+](=O)[O-])o1	11.5%
CCOc1ccc(C(C(=O)NC2CCCC2)N(Cc2ccccc2)C(=O)c2nsc(Cl)c2Cl)cc1 (stereo not drawn)	4.9%
Cc1ccc(/C=N/NC(=O)c2ccccn2)s1	15.4%
Cc1ccccc1NC(=O)c1cccc(N2C(=O)C3C4CCC(C4)C3C2=O)c1 (stereo not drawn)	6.28%
Cc1oc(S(=O)(=O)N2CCCCC2)cc1NC(=O)Nc1ccc(F)cc1	3.43%
Cl.Cn1nnnc1SCCNCc1cccnc1	4.95%
COC(=O)c1ccc(NCC(=O)c2ccccc2)cc1	9.29%
CCCN1CCN(CC(O)COC(c2ccc(OC)cc2)c2ccc(OC)cc2)CC1.O=C(O)C(=O)O (stereo not drawn)	-30.2%
C=CCn1c(SCC(=O)NCc2ccco2)nc2sc3c(c2c1=O)CCCC3	9.48%

Compound	hERG current change (%, negative = inhibition) at 10uM
CC(=O)N1CCCc2cc(S(=O)(=O)Nc3ccccc3C)ccc21	25.1%
c1cncc(C(c2nnnn2C2CCCC2)N2CCCC2)c1 (stereo not drawn)	-23.9%
O=C(C1=COCCO1)N1CCN(c2nc3ccc([N+](=O)[O-])cc3s2)CC1	-37.2%
Cc1ccc(OCCCC(=O)Nc2nc3ccccc3[nH]2)cc1	18.4%
COc1ccc(-c2cc(C)no2)cc1S(=O)(=O)NCC(C)c1ccccc1 (stereo not drawn)	4.35%
Cc1ccccc1C(=O)Nc1ccccc1-n1cccc1	16%
CN(C)/C=N/c1cc(=O)n(C)c(=O)n1Cc1ccccc1	8.39%
Cc1ccccc1C(=O)NNC(=O)c1ccc2nc[nH]c2c1	4.53%
COc1nc(N/N=C/c2ccccc2F)nc(N2CCCCC2)n1	-15.6%
Cc1ccc(C2=NOC(=O)/C2=C\c2ccccc2)cc1	7.86%
CC(=O)Nc1ccc(C2=CC(=O)C[C@H](c3ccc(Cl)cc3)C2)cc1	1.7%
CC1(C)CC(=O)C(C2C3=C(CC(C)(C)CC3=O)Oc3ccccc32)C(=O)C1 (stereo not drawn)	18.9%
O=C(Nc1cccc(Cl)c1)N1CCN2C(=O)c3ccccc3C12c1ccccc1 (stereo not drawn)	-24.3%
COc1cc(NC(=O)N[C@@H](CCSC)C(=O)O)cc(OC)c1	6.91%
O=C(CSCc1cccc(Br)c1)N1CCOCC1	8.02%
COc1ccccc1N1CCN(C2CCC(C)CC2)CC1 (stereo not drawn)	4.87%
COc1ccc(NC(=O)COc2cccc3c2CCN(Cc2cccnc2)C3=O)c(OC)c1	-8.62%
COc1ccc(NC(=O)C2CCCN2C(=O)NC2CCCCC2)cc1OC (stereo not drawn)	-4.85%
CC1CCC(NC(=O)c2ccc3nc[nH]c3c2)CC1 (stereo not drawn)	-7.76%

Compound	hERG current change (%, negative = inhibition) at 10uM
Cc1ccc(SCc2ccc(C(=O)N3CCCCC3)cc2)cc1	1.58%
O=c1[nH]c(C2CCCN(S(=O)(=O)c3ccc(F)cc3)C2)nc2c1nnn2Cc1ccccc1 (stereo not drawn)	4.19%
COc1ccc(NC(=O)Nc2cccnc2)cc1	-3.82%
Cc1ccsc1C(=O)C1CCCN(Cc2cc3ccccc3o2)C1 (stereo not drawn)	-23.7%
COc1cccc(/C=N/NC(=O)CNC(=O)c2ccc(S(=O)(=O)N3CCOCC3)cc2)c1OC	-4.96%
Nc1nc2n(n1)C(c1ccco1)CC(c1ccccc1)N2 (stereo not drawn)	-6.26%
O=C(Nc1nnc(Cc2ccc(Cl)cc2)s1)c1ccncc1	-8.54%
COc1cc(OC)c(C=O)c(OC(=O)N2CCOCC2)c1	17.4%
Cn1c(CNC(=O)c2ccc(Cl)c(Cl)c2)nnc1SCC(=O)Nc1sc2c(c1C#N)CCCC2	4.03%
COc1cccc(CN(C)C(=O)c2cccc(S(=O)(=O)NCc3ccccc3)c2)c1OC	-38%
CC1CCCN(C(=O)c2ccc(Br)c(S(=O)(=O)N3CCOCC3)c2)C1 (stereo not drawn)	-7.24%
O=C(CN(C(=O)c1ccc2c(c1)OCCO2)c1ccccc1)NCC1CCCO1 (stereo not drawn)	19.5%
CCOc1ccc(C(C)NC(=O)c2cccs2)cc1OCC (stereo not drawn)	7.74%
O=C(CSc1nc(-c2ccccc2)nc2ccccc12)Nc1cccc(C(=O)O)c1	8.91%
COc1ccc(-c2ccc(SCc3ccccn3)nn2)cc1OC	1.59%
CC1CCc2c(sc(NC(=O)CCCn3cnc([N+](=O)[O-])n3)c2C(N)=O)C1 (stereo not drawn)	-34%
CCOC(=O)c1sc(=NC(=O)c2ccc(OC(C)C)cc2)n(C)c1C	10.8%
Cn1cc(C(=O)C(=O)NC2CCCCC2)c2ccccc21	1.04%
COc1ccc(/C=C(\NC(=O)c2ccc(OC)c(OC)c2)C(=O)N2CCN(C)CC2)cc1	-19.4%
